Test results: the supplement of paper PMC6609913
Counter-ions that a name gives are not always drawn. ± gives the standard deviation of the averaged measurements. Whole data set: some 1,300 compounds, median “normalised cell viability” near 1, cut for the lowest 2% near 0.14. The list shows a part of the results.

System: V-C8 (BRCA2-deficient hamster cells)
Assay: normalised cell viability (fraction of plate median); higher = more viable cells (less toxic)
Conditions: 5 µM
Summary of the method: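 Hamster V-C8 cells lacking BRCA2 and V-C8 cells with BRCA2 restored were seeded in 96-well plates. Library drugs (10 mM DMSO stocks) were added 24 h later at 5 μM in 100 μl medium, next to DMSO control wells, for 3 days (screen 1) or 6 days (screen 2). Cell viability was read by resazurin assay, median-plate normalised (modified robust per cent of sample), and triplicate wells were averaged.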

Row | Compound | normalised cell viability (treatment time: 3 days) | normalised cell viability (treatment time: 6 days)
1 | Cc1nc2n(c(=O)c1CCN1CCC(c3noc4cc(F)ccc34)CC1)CCCC2 [Risperidone] | 1.06 ± 0.018 | 1.08 ± 0.076
2 | CNCCC(Oc1ccc(C(F)(F)F)cc1)c1ccccc1 (stereo not given) [Fluoxetine hydrochloride] | 0.7923 ± 0.0074 | 0.752 ± 0.042
3 | CC(=O)Nc1ccc(CC(=O)O)cc1 [Actarit] | 1.05 ± 0.015 | 1.03 ± 0.038
4 | OCc1cc(C(O)CNCCCCCCOCCCCc2ccccc2)ccc1O (stereo not given) [Salmeterol] | 0.916 ± 0.079 | 0.879 ± 0.047
5 | O=C(O)Cc1sc(-c2ccccc2)nc1-c1ccc(Cl)cc1 [Fentiazac] | 0.978 ± 0.05 | 1 ± 0.031
6 | CC(=O)OCC(=O)[C@@]12N=C(C)O[C@@H]1C[C@H]1[C@@H]3CCC4=CC(=O)C=C[C@]4(C)[C@H]3[C@@H](O)C[C@@]12C [Deflazacort] | 0.984 ± 0.029 | 1 ± 0.029
7 | CCN1CC(CCN2CCOCC2)C(c2ccccc2)(c2ccccc2)C1=O (stereo not given) [Doxapram hydrochloride] | 0.925 ± 0.022 | 1.04 ± 0.089
8 | CC(=O)[C@H]1CC[C@H]2[C@@H]3C[C@H](C)C4=CC(=O)CC[C@]4(C)[C@H]3[C@@H](O)C[C@]12C [Medrysone] | 1.09 ± 0.13 | 1.01 ± 0.012
9 | CCOC(=O)OC(C)OC1=C(C(=O)Nc2ccccn2)N(C)S(=O)(=O)c2ccccc21 (stereo not given) [Ampiroxicam] | 1.03 ± 0.055 | 1.02 ± 0.041
10 | CCCCNC(=O)NS(=O)(=O)c1ccc(C)cc1 [Tolbutamide] | 0.977 ± 0.068 | 0.973 ± 0.035
11 | O=C(O)c1cc(-c2ccc(F)cc2F)ccc1O [Diflunisal] | 1.04 ± 0.037 | 0.997 ± 0.043
12 | CC(C)(C)NC[C@H](O)c1ccc(O)c(CO)c1 [Levalbuterol hydrochloride] | 1.03 ± 0.049 | 0.99 ± 0.13
13 | CCn1cc(C(=O)O)c(=O)c2cnc(N3CCCC3)nc21 [Piromidic acid] | 1.02 ± 0.051 | 1.03 ± 0.08
14 | O=S(=O)(O)CCS [Mesna] | 1.04 ± 0.022 | 1.06 ± 0.043
15 | CN(C)[C@@H]1C(O)=C(C(N)=O)C(=O)[C@@]2(O)C(O)=C3C(=O)c4c(O)ccc(Cl)c4[C@@H](O)[C@H]3C[C@@H]12 [Demeclocycline hydrochloride] | 0.948 ± 0.035 | 0.937 ± 0.015
16 | Cn1c([N+](=O)[O-])cnc1COC(N)=O [Ronidazole] | 0.867 ± 0.095 | 0.964 ± 0.1
17 | O=C1c2ccccc2S(=O)(=O)N1CCCCN1CCN(c2ncccn2)CC1 [Ipsapirone] | 1.09 ± 0.075 | 1.04 ± 0.021
18 | COc1ccc(C(=O)NCc2ccc(OCCN(C)C)cc2)cc1OC [Itopride] | 0.972 ± 0.025 | 1 ± 0.1
19 | N[C@@H](C(=O)N[C@@H]1C(=O)N2C(C(=O)O)=C(Cl)CS[C@H]12)c1ccccc1 [Cefaclor hydrate] | 0.997 ± 0.039 | 1.09 ± 0.12
20 | CC(Oc1ccccc1)C(=O)N[C@@H]1C(=O)N2[C@@H]1SC(C)(C)[C@@H]2C(=O)O (stereo not given in full) [Phenethicillin potassium salt] | 0.913 ± 0.037 | 0.998 ± 0.043
